Structures are written as SMILES. Out of some 45,000 compounds screened, about 65 (0.1%) were called active. Calls follow the shape of the dose curve; as a rule, active = well fitted activation curve with a large enough effect; inconclusive = small, poorly fitted or top-dose-only effect; inactive = no such curve, though single readings can be large or run the other way. The list shows a part of the results.

Sequence of UniProt P54803 (P54803 whole entry, looked up): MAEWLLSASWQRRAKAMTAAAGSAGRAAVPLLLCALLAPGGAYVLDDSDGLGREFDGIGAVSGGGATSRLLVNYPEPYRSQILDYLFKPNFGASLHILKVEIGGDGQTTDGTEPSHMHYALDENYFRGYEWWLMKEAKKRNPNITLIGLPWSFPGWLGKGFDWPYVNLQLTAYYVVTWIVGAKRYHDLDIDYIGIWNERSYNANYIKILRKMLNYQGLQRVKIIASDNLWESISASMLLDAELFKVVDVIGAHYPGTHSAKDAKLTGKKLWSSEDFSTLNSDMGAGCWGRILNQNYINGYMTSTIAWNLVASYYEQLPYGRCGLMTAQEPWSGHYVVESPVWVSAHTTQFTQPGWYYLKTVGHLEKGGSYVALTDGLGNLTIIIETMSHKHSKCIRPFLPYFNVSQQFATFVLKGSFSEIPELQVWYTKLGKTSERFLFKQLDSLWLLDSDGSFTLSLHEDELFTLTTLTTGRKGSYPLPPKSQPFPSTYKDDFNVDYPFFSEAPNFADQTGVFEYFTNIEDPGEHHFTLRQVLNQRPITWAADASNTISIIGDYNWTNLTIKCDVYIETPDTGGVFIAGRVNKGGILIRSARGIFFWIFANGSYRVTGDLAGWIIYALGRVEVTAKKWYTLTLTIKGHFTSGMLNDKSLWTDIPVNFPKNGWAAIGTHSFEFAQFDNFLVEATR

The experiment has as its target Galactocerebrosidase (Homo sapiens) (UniProt P54803). The experiment is described as follows: A Novel Cell-Based Assay to Identify Small Molecules for B -Galactocerebrosidase. Also: 0% is about no effect; nearly all actives have a fitted effect of over 65% in size. To be noted: 145M-Twi-hGALC-G270D cells (Twitcher mouse brain line with human GALC G270D), HMU-beta-Gal fluorescence, 48 h; activation: at the top concentration. In short, it runs like this:
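Fluorogenic HMU-b-Gal hydrolysis (0.1 mM final, pH 5.2 citrate-phosphate with 1 mg/mL sodium taurocholate; carbonate stop buffer) measures mutant GALC activity after compound treatment of live 145M-Twi Twitcher brain cells stably carrying human GALC-G270D, with wild-type GALC line alongside; activation sought.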
For the molecule `c1ccc2c(c1)Nc1ccccc1S2`, the activation entry was “inactive”.
Regarding `C[C@]12CC[C@H]3[C@@H](CC=C4C[C@@H](O)CC[C@@]43C)[C@@H]1CC[C@@H]2O`, the “activation” value is inactive: -8.91%.
The value for `CC(C)c1ccc(NC(=O)CN2C(=O)CN=C(c3ccccc3)c3ccccc32)cc1` was inactive: -7.14%; that for `CC(C)(C)C(O)C(Oc1ccc(Cl)cc1)n1cncn1` (configuration not stated) was inactive: -12% [at 114 µM]; that for `Clc1ccccc1N1CCNCC1` was inactive: -8.3%.
`CC(=O)OCC(=O)Nc1cc(C#N)cc(NC(=O)COC(C)=O)c1Cl`: the “activation” value is inactive: -14.6%.
With `COc1ccc(OCC(=O)N2CCN(CCc3ccccn3)CC2)cc1`, the “activation” value is inactive: -16.4%.
Regarding `COc1cc(CC(C)N)c(OC)cc1Br` (configuration not stated), the “activation” value was inactive: -6.18% [at 129 µM].
The value for `COc1cc(CN2CCc3nc(N4CCN(c5ccccc5F)CC4)ncc3C2)ccc1OC(C)C` was inactive: -22.7%; that for `COP(=O)(OC)OC=C(Cl)Cl` was inactive: -14.7%; that for `CC(C)C(Br)C(=O)NC(N)=O` (configuration not stated) was inactive: -11.3%.
The value for `Cc1ccc(-n2c(/C=C/c3cc(Br)cs3)nc3ccccc3c2=O)cc1C` was inactive: -4.06%; that for `COc1ccc(C)cc1NC(=O)c1cccn(Cc2ccccc2Cl)c1=O` was inactive: 7.61%; that for `N#CC(C#N)=Cc1ccc(O)c(O)c1` was inactive: -3.89%.
The value for `Cc1ccc(N2CCN(C(=O)C3CCC(CNS(=O)(=O)c4ccc(Br)s4)CC3)CC2C)cc1` (configuration not stated) was inactive: -32.1%; that for `C[C@@H]1CC2=CC(=O)CC[C@@H]2[C@H]2CC[C@@]3(C)[C@@H](CC[C@]3(C)O)[C@@H]21` was inactive: -11.4%.
Turning to `C=CCC1=C(C)C(OC(=O)C2C(C=C(C)C)C2(C)C)CC1=O` (configuration not stated), the “activation” value is inactive: -7.98% [at 114 µM].
With `Cc1cccc(C)c1OCC(=O)Nc1ccc(Cl)cc1C(=O)c1ccccc1` the figure was inactive: -26.2%; with `O=C(NCCSc1c(-c2ccc(F)cc2)[nH]c2ccccc12)c1ccc(S(=O)(=O)N2CCOCC2)cc1`, inactive: -44.6%; with `Cc1cccc(C)c1NC(=O)CN1CCCC1=O`, inactive: -7.23%.
The value for `O=C(COc1ccccc1[N+](=O)[O-])N1CCN(CCc2ccncc2)CC1` was inactive: -1.97%; that for `CCNc1nc(Cl)nc(NCC)n1` was inactive: -17.6%; that for `Oc1ccc2c3c1O[C@H]1[C@@H](O)C=C[C@H]4[C@@H](C2)NCC[C@@]341` was inactive: -6.53% [at 129 µM].
On to `CN1CCC(O)(c2ccc(F)cc2)C(C(=O)c2ccc(F)cc2)C1` (configuration not stated), for which the “activation” value is inactive: -15.6%.
`COC(=O)c1ccc(NC(C)=O)cc1OC`: the “activation” value was inactive: -12.2%.
For `O=c1n(Cl)c(=O)n(Cl)c(=O)n1Cl`, the “activation” value was inactive: -16.5%.
The value for `Cn1c(=O)n(C)c2cc(CNCCc3ccccc3F)ccc21` was inactive: -19.6%; that for `Cn1cc(C2=C(c3cn(C4CCN(Cc5ccccn5)CC4)c4ccccc34)C(=O)NC2=O)c2ccccc21` was inactive: -9.99%; that for `OCCOc1ccccc1` was inactive: -10.1%.
`O=C1CC(c2ccccc2Br)c2c(c3ccccc3oc2=O)O1` (configuration not stated): the “activation” value is inactive: -8.32%.
`C=CCN1CC[C@]23c4c5ccc(O)c4O[C@H]2C(=O)CC[C@@]3(O)[C@H]1C5`: the “activation” value was inactive: -9.07%.
For `Cc1ccc(-n2c(/C=C/c3ccccc3)nc3ccccc3c2=O)cc1Cl`, the “activation” value was inactive: -3.66%.
With `Cc1oc(-c2ccccc2F)nc1CS(=O)(=O)CC(=O)N1CCN(c2cccc(C(F)(F)F)c2)CC1` the figure was inactive: -32.8%; with `CC(CC(C#N)(c1ccccc1)c1ccccc1)N(C)C` (configuration not stated), inactive: -8.31% [at 114 µM].
With `COP(=O)(OC)C(O)C(Cl)(Cl)Cl` (configuration not stated) the figure was inactive: -14.5%; with `COc1ccc(OC)c(CCNCc2c(C(=O)O)c(C)n(Cc3ccc(F)cc3Cl)c2C)c1`, inactive: -10.4%; with `CN1CCC(N(Cc2ccccc2)c2ccccc2)CC1`, inactive: -4.22%.
The value for `O=C1NCN(c2ccccc2)C12CCN(CCCOc1ccc(F)cc1)CC2` was inactive: -10.5%; that for `CCCC1=Nc2cc(C(=O)NCCc3ccc(OC)cc3OC)ccc2Sc2ccccc21` was inactive: -32.2%; that for `Cc1cc(OCC(=O)N2CCN(CCc3ccncc3)CC2)cc(C)c1Cl` was inactive: -17.7%.
For the molecule `COc1ccc(NC(=O)CCc2nc(C3=CCN(Cc4cccc(C)c4)CC3)no2)c(OC)c1`, the “activation” value was inactive: -12.9%.
With `CN1C[C@H](CNC(=O)OCc2ccccc2)C[C@@H]2c3cccc4c3c(cn4C)C[C@H]21` the figure was inactive: -8.52%; with `Cc1cccc(-n2c(/C=C\c3cccc(Br)c3)nc3ccccc3c2=O)c1`, inactive: -22.3%; with `CCCCCCCCCCCCCCCC[N+](C)(C)C`, inactive: -16.1%.
`CCCCCCCCCC(=O)O[C@H]1CC[C@H]2[C@@H]3CCC4=CC(=O)CC[C@@H]4[C@H]3CC[C@]12C`: the “activation” value was inactive: -7.27%.
The value for `CCN[C@H](C)Cc1cccc(C(F)(F)F)c1` was inactive: -2.91% [at 114 µM]; that for `COc1ccc(C2CC(=O)Oc3c2c(=O)oc2ccccc32)c(OC)c1OC` (configuration not stated) was inactive: -17.1%.
The value for `Cc1ccc(Cn2cccc(C(=O)Nc3ccc(C)c(Cl)c3)c2=O)cc1` was inactive: -23.1%; that for `Cc1ccc(CNC(=O)CCCn2c(=O)c3sccc3n(CC(=O)Nc3c(C)cccc3C)c2=O)cc1` was inactive: -5.43%.
The value for `CC#C[C@]1(O)CC[C@H]2[C@@H]3C[C@H](C)C4=CC(=O)CC[C@]4(C)[C@H]3CC[C@@]21C` was inactive: -20.6%; that for `Clc1ccc(COC(Cn2ccnc2)c2ccc(Cl)cc2Cl)cc1` (configuration not stated) was inactive: 1.68%; that for `CC(C)c1cccc(C(C)C)c1O` was inactive: 0.141%.
As to `Cc1nnc(NC(=O)c2cccn(Cc3ccccc3)c2=O)s1`, the “activation” value was inactive: -20.7%.
With `Cc1cccc(OC(C)C(=O)NCC2(N(C)C)CCCCC2)c1C` (configuration not stated) the figure was inactive: -16.6%; with `CN(C)CCc1c[nH]c2ccccc12`, inactive: -7.92% [at 129 µM].
Turning to `CC(Cc1ccccc1)N(C)Cc1ccco1` (configuration not stated), the “activation” value is inactive: -14.6%.
The value for `O=C(Nc1nc2ccccc2s1)c1cccn(Cc2ccccc2)c1=O` was inactive: -3.61%; that for `CC[N+]1(C)CCCC(OC(=O)C(O)(c2ccccc2)c2ccccc2)C1` (configuration not stated) was inactive: -16.6%; that for `CCCc1nc(SC)ncc1C(=O)Nc1ccc(Cl)cc1C(=O)c1ccccc1` was inactive: -9.82%.
The value for `O=C(Nc1ccc(Br)cc1)c1ccc(Cl)c(S(=O)(=O)N2CCCCCC2)c1` was inactive: -20%; that for `Cc1nnc2n1-c1sc(CCC(=O)N3CCOCC3)cc1C(c1ccccc1Cl)=NC2` was inactive: -8.68%.
With `Nc1ccc([N+](=O)[O-])cc1` the figure was inactive: -7.8% [at 114 µM].
On to `CCOc1ccc(CN(CCc2ccc3c(c2)OCO3)Cc2cccc(Br)c2)cc1`, for which the “activation” value was inactive: 6.78%.
The value for `c1ccc2c(c1)OCC(C1=NCCN1)O2` (configuration not stated) was inactive: -6.97%.
With `O=C(COc1ccccc1Cl)N1CCN(CCc2ccccn2)CC1` the figure was inactive: -16.6%; with `C[C@]12CC[C@H](O)CC1=CC[C@@H]1[C@@H]2CC[C@]2(C)C(=O)CC[C@@H]12`, inactive: -6.64%.
With `CC(Cc1ccccc1)NCc1ccccc1Cl` (configuration not stated) the figure was inactive: -9.95%.
For `CN1C(=O)CN=C(c2ccccc2)c2cc(Cl)ccc21`, the “activation” value was inactive: -8.59%.
The value for `Cc1ccccc1-n1nc(C)c2c1NC(=O)CSC2c1ccccc1C(F)(F)F` (configuration not stated) was inactive: -10.4%; that for `c1ccc(CN2CCNCC2)cc1` was inactive: -7.89% [at 273 µM]; that for `COc1ccccc1CN1CCN(C(=O)COc2cccc(C)c2)CC1` was inactive: -24%.
As to `COc1ccc(NC(=O)CN2C(=O)CN=C(c3ccccc3)c3ccccc32)c(OC)c1`, the “activation” value was inactive: -32%.
The value for `CC[C@@H](CO)NC(=O)[C@@H]1C=C2c3cccc4c3c(cn4C)C[C@H]2N(C)C1` was inactive: -6.52%; that for `CCOc1ccc(CN(CCc2ccc3c(c2)OCO3)Cc2ccc(CC)cc2)cc1` was inactive: -2.6%; that for `CC(C)OP(=O)(CP(=O)(OC(C)C)OC(C)C)OC(C)C` was inactive: -11.9%.
With `COP(=S)(OC)Oc1ccc(S(=O)(=O)N(C)C)cc1` the figure was inactive: -17.2%.
The value for `CCc1ccc(NC(=O)Cn2c(=O)oc3cc(S(=O)(=O)NCc4ccccc4)ccc32)cc1` was inactive: -43.5% [at 11.5 µM].
As for `COc1ccc2c(c1OC)CN1CCc3cc4c(cc3C1C2)OCO4` (configuration not stated), the “activation” value was inactive: -21.3%.
With `CCOC(=O)c1ccc(N2C(=O)c3n[nH]c(-c4cccs4)c3C2c2ccc(OC)cc2OC)cc1` (configuration not stated) the figure was inactive: -30.6%; with `C[CH2][Hg][S]c1ccccc1C(=O)O`, inactive: -20.6%.
In the case of `CCn1c(CN2CCN(C)CC2)nc2ccccc21`, the “activation” value was inactive: -13.3%.
As for `CC(=O)C1CCOC1=O` (configuration not stated), the “activation” value was inactive: -15.3%.
For `O=C(Nc1ccc(OC(F)(F)F)cc1)c1cccn(Cc2ccccc2Cl)c1=O`, the “activation” value was inactive: -9.72%.
The value for `O=C(c1ccc2c(c1)N(Cc1c(F)cccc1Cl)C(=O)c1ccccc1S2)N1CCC2(CC1)OCCO2` was inactive: -12.6%; that for `C[C@H]1O[C@@H](O[C@H]2[C@@H](O)C[C@H](O[C@H]3[C@@H](O)C[C@H](O[C@H]4CC[C@@]5(C)[C@H](CC[C@@H]6[C@@H]5CC[C@]5(C)[C@@H](C7=CC(=O)OC7)CC[C@]65O)C4)O[C@@H]3C)O[C@@H]2C)C[C@H](O)[C@@H]1O` was inactive: -6.8%.
Regarding `Cc1ccc(C)c(CN2C(=O)c3ccccc3Sc3ccc(C(=O)N4CCC5(CC4)OCCO5)cc32)c1`, the “activation” value was inactive: -6.59%.
With `Cc1cccc(CN2C(=O)CN=C(c3ccccc3Cl)c3cc(Cl)ccc32)c1` the figure was inactive: -8.31%; with `CN1C(=O)c2ccccc2Sc2ccc(NC(=O)NCc3ccc(Cl)cc3)cc21`, inactive: -37.7%; with `O=c1[nH]oc2c1CCNC2`, inactive: -11.3%.
The value for `C[C@]12CC[C@H]3[C@@H](CCC4=CC(=O)CC[C@@]43C)[C@@H]1CC[C@@H]2C(=O)CO` was inactive: -10.9%.
The value for `CN1[C@@H]2CC[C@H]1CC(OC(=O)c1cc(Cl)cc(Cl)c1)C2` (some centres not stated) was inactive: -12.7%; that for `CCOC(C(=O)OCCN(C)C)(c1ccccc1)c1ccccc1` was inactive: -10%.
Regarding `C[C@H](N)C(=O)c1ccccc1`, the “activation” value was inactive: 7.02% [at 129 µM].
With `Cc1ccc2scc(N3CCN(C)CC3)c(=O)c2c1` the figure was inactive: -4.45%; with `C[C@@H]1C[C@@H]([C@H](O)CC2CC(=O)NC(=O)C2)C(=O)[C@@H](C)C1`, inactive: -17.2%.
The value for `Cc1ccc(-n2c(/C=C/c3ccccc3)nc3ccccc3c2=O)cc1C` was inactive: -9.56%.
With `O=C(O)C(Cl)Cl` the figure was inactive: -14%; with `Nc1ccccc1C(=O)OCC(O)CO` (configuration not stated), inactive: -21.7%; with `O=C(O)c1nn(Cc2ccc(Cl)cc2Cl)c2ccccc12`, inactive: -6.45%.
On to `CC(=O)c1ccc(NC(=O)c2sc3nc4c(cc3c2N)N2CCC4CC2)cc1`, for which the “activation” value is inactive: -8.62%.
The value for `Cc1ccc(-n2c(/C=C/c3cccc(C(F)(F)F)c3)nc3ccccc3c2=O)cc1` was inactive: -4.01%.
The value for `NC(=O)c1ccc(NC(=O)c2cccn(Cc3ccccc3)c2=O)cc1` was inactive: -13%; that for `Cc1c(C(c2ccc(O)cc2)c2c(O)c3ccccc3oc2=O)c(=O)n(-c2ccccc2)n1C` (configuration not stated) was inactive: -13.5%; that for `CCOc1ccc(CN2C(=O)c3ccccc3Sc3ccc(C(=O)N4CCC5(CC4)OCCO5)cc32)cc1` was inactive: -11.3%.
With `CC[C@@H](CO)NC(=O)[C@@H]1C=C2c3cccc4[nH]cc(c34)C[C@H]2N(C)C1` the figure was inactive: -7.56%; with `CCSc1nnc(NC(=O)c2cccn(Cc3ccc(Cl)cc3)c2=O)s1`, inactive: -23%.
In the case of `CCC1(C2=NCCN2)Cc2ccccc2O1` (configuration not stated), the “activation” value is inactive: -11%.

The values are drawn from PubChem BioAssay AID1159614 (National Center for Advancing Translational Sciences (NCATS), 2016).
